Reference: the supplement of paper PMC4604168 (melanoma cell lines)
The list shows a part of the results. Many values rest on one well or one pass, so single values are uncertain.

What was measured:
Experiment in all cases: cell count relative to DMSO control; melanoma cells; higher = more viable cells
Details in all cases: library dose: low library concentration; 72 h
[1] = tested on: WM115
[2] = tested on: WM1716
[3] = tested on: WM1745
[4] = tested on: WM3526
[5] = tested on: WM3619
[6] = tested on: WM451Lu
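Note: cell number obtained by counting DAPI-stained nuclei in high-throughput microscope images with image analysis software, screen run in 1,536-well plates.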

| SMILES | cell count [1] | cell count [2] | cell count [3] | cell count [4] | cell count [5] | cell count [6] |
| --- | --- | --- | --- | --- | --- | --- |
| CC(=O)c1c(C)c2cnc(Nc3ccc(N4CCNCC4)cn3)nc2n(C2CCCC2)c1=O [palbociclib] + Cc1cc([N+](=O)[O-])ccc1NS(=O)(=O)c1cc(Cl)ccc1Cl [FH535] (first compound 0.04 µM, partner dose 1 µM) | 66.3% | 55.6% | 72.1% | 51.6% | 75.5% | 83.4% |
| CC(=O)c1c(C)c2cnc(Nc3ccc(N4CCNCC4)cn3)nc2n(C2CCCC2)c1=O [palbociclib] + NC(=O)Nc1cc(-c2cccc(F)c2)sc1C(=O)N[C@H]1CCCNC1 [AZD7762] (first compound 0.04 µM, partner dose 0.02 µM) | 71.1% | 55.5% | 76.7% | 45.9% | 68.2% | 63.4% |
| Nc1ccn([C@@H]2O[C@H](CO)[C@@H](O)C2(F)F)c(=O)n1 [gemcitabine] + OCc1c[nH]c2ccccc12 [Indole-3-carbinol] (first compound 0.0004 µM, partner dose 0.8 µM) | 98.3% | 88.1% | 70.1% | 117% | 52% | 93.8% |
| Nc1ccn([C@@H]2O[C@H](CO)[C@@H](O)C2(F)F)c(=O)n1 [gemcitabine] + C#Cc1cccc(Nc2ncnc3cc(OCCOC)c(OCCOC)cc23)c1 [erlotinib] (first compound 0.0004 µM, partner dose 0.8 µM) | 93% | 97.4% | 67.6% | 115% | 79% | 99.5% |
| Nc1ncn([C@H]2C[C@H](O)[C@@H](CO)O2)c(=O)n1 [decitabine] + NCC(=O)Nc1ccc(-n2nc(C(F)(F)F)cc2-c2ccc3c(ccc4ccccc43)c2)cc1 [OSU03012] (first compound 0.1 µM, partner dose 1 µM) | 86% | 69.6% | 95.8% | 54.6% | 113% | 65.3% |
| Nc1ccn([C@@H]2O[C@H](CO)[C@@H](O)C2(F)F)c(=O)n1 [gemcitabine] + CN(NC(=O)CC(=O)NN(C)C(=S)c1ccccc1)C(=S)c1ccccc1 [STA4783] (first compound 0.0004 µM, partner dose 0.006 µM) | 88.2% | 73% | 58.1% | 96.4% | 58.7% | 102% |
| Nc1ncn([C@H]2C[C@H](O)[C@@H](CO)O2)c(=O)n1 [decitabine] + C=CCn1c(=O)c2cnc(Nc3ccc(N4CCN(C)CC4)cc3)nc2n1-c1cccc(C(C)(C)O)n1 [MK1775] (first compound 0.1 µM, partner dose 0.02 µM) | 70.3% | 64% | 91.4% | 124% | 76.4% | 76.7% |
| CC(=O)c1c(C)c2cnc(Nc3ccc(N4CCNCC4)cn3)nc2n(C2CCCC2)c1=O [palbociclib] + c1cc(-c2cnn3cc(-c4ccc(OCCN5CCCCC5)cc4)cnc23)ccn1 [Dorsomorphin] (first compound 0.04 µM, partner dose 0.4 µM) | 76.2% | 69.4% | 77.3% | 62.7% | 89.8% | 61.6% |
| Nc1ccn([C@@H]2O[C@H](CO)[C@@H](O)C2(F)F)c(=O)n1 [gemcitabine] + Oc1cc(-c2nc(-c3ccccc3)[nH]c2-c2ccncc2)ccc1Cl [L779450] (first compound 0.0004 µM, partner dose 0.2 µM) | 91.6% | 98.4% | 59.4% | 95.2% | 61.8% | 131% |
| CO[C@H]1C[C@@H]2CC[C@@H](C)[C@@](O)(O2)C(=O)C(=O)N2CCCC[C@H]2C(=O)O[C@H]([C@H](C)C[C@@H]2CC[C@@H](OCCO)[C@H](OC)C2)CC(=O)[C@H](C)/C=C(\C)[C@@H](O)[C@@H](OC)C(=O)[C@H](C)C[C@H](C)/C=C/C=C/C=C/1C [everolimus] + O=C(CCCCCCC(=O)Nc1ccccc1)NO [vorinostat] (first compound 0.02 µM, partner dose 0.08 µM) | 80.6% | 80.3% | 108% | 72.9% | 88.2% | 75.6% |
| Nc1ccn([C@@H]2O[C@H](CO)[C@@H](O)C2(F)F)c(=O)n1 [gemcitabine] + COc1ccc(-c2ccc3c(N4CCOCC4)nc(N4C[C@@H](C)O[C@@H](C)C4)nc3n2)cc1CO [KU0063794] (first compound 0.0004 µM, partner dose 0.02 µM) | 91.1% | 85.3% | 57.6% | 87.9% | 66.7% | 103% |
| Nc1nc(F)nc2c1ncn2[C@@H]1O[C@H](CO)[C@@H](O)[C@@H]1O [fludarabine] + Nc1cccc2c1CN(C1CCC(=O)NC1=O)C2=O [lenalidomide] (first compound 0.2 µM, partner dose 1 µM) | 97.9% | 93.2% | 101% | 18% | 116% | 37.1% |
| Nc1ncn([C@H]2C[C@H](O)[C@@H](CO)O2)c(=O)n1 [decitabine] + COc1cc2c(Oc3ccc4[nH]c(C)cc4c3F)ncnc2cc1OCCCN1CCCC1 [cediranib] (first compound 0.1 µM, partner dose 0.4 µM) | 82.5% | 87.8% | 80.7% | 99.8% | 115% | 96.2% |
| CO[C@H]1C[C@@H]2CC[C@@H](C)[C@@](O)(O2)C(=O)C(=O)N2CCCC[C@H]2C(=O)O[C@H]([C@H](C)C[C@@H]2CC[C@@H](OCCO)[C@H](OC)C2)CC(=O)[C@H](C)/C=C(\C)[C@@H](O)[C@@H](OC)C(=O)[C@H](C)C[C@H](C)/C=C/C=C/C=C/1C [everolimus] + CC(=O)c1c(C)c2cnc(Nc3ccc(N4CCNCC4)cn3)nc2n(C2CCCC2)c1=O [palbociclib] (first compound 0.02 µM, partner dose 0.04 µM) | 79.2% | 64% | 71.3% | 47.5% | 58.6% | 54.9% |
| CO[C@H]1C[C@@H]2CC[C@@H](C)[C@@](O)(O2)C(=O)C(=O)N2CCCC[C@H]2C(=O)O[C@H]([C@H](C)C[C@@H]2CC[C@@H](OCCO)[C@H](OC)C2)CC(=O)[C@H](C)/C=C(\C)[C@@H](O)[C@@H](OC)C(=O)[C@H](C)C[C@H](C)/C=C/C=C/C=C/1C [everolimus] + C#Cc1cccc(Nc2ncnc3cc(OCCOC)c(OCCOC)cc23)c1 [erlotinib] (first compound 0.02 µM, partner dose 0.8 µM) | 74.2% | 77.2% | 81.5% | 84.5% | 92.9% | 91.7% |
| CO[C@H]1C[C@@H]2CC[C@@H](C)[C@@](O)(O2)C(=O)C(=O)N2CCCC[C@H]2C(=O)O[C@H]([C@H](C)C[C@@H]2CC[C@@H](OCCO)[C@H](OC)C2)CC(=O)[C@H](C)/C=C(\C)[C@@H](O)[C@@H](OC)C(=O)[C@H](C)C[C@H](C)/C=C/C=C/C=C/1C [everolimus] + COc1cc(N2CCC(N3CCN(C)CC3)CC2)ccc1Nc1ncc(Cl)c(Nc2ccccc2S(=O)(=O)C(C)C)n1 [NVP-TAE684] (first compound 0.02 µM, partner dose 0.08 µM) | 82.3% | 76.9% | 73% | 56.9% | 48% | 61.3% |
| Nc1nc(F)nc2c1ncn2[C@@H]1O[C@H](CO)[C@@H](O)[C@@H]1O [fludarabine] + Cn1cc(/C=C2\C(=O)Nc3cccnc32)c2ccccc21 [GW441756] (first compound 0.2 µM, partner dose 0.4 µM) | 101% | 113% | 100% | 28.4% | 137% | 59.9% |
| CC(=O)O[C@@]12CO[C@@H]1C[C@H](O)[C@@]1(C)C(=O)[C@H](O)C3=C(C)[C@@H](OC(=O)[C@H](O)[C@@H](NC(=O)OC(C)(C)C)c4ccccc4)C[C@@](O)([C@@H](OC(=O)c4ccccc4)[C@H]21)C3(C)C [Docetaxel] + CC1(C)NC(=O)N(c2ccc([N+](=O)[O-])c(C(F)(F)F)c2)C1=O [nilutamide] (first compound 0.0001 µM, partner dose 1 µM) | 54.4% | 33.5% | 34.9% | 39.8% | 96.4% | 44.7% |
| Nc1ncn([C@H]2C[C@H](O)[C@@H](CO)O2)c(=O)n1 [decitabine] + COCC[n+]1c2c(n(Cc3cnccn3)c1C)C(=O)c1ccccc1C2=O [YM155] (first compound 0.1 µM, partner dose 0.0004 µM) | 72.3% | 62.8% | 88.5% | 105% | 78.7% | 83.6% |
| Nc1ccn([C@@H]2O[C@H](CO)[C@@H](O)C2(F)F)c(=O)n1 [gemcitabine] + CC(C)(C)c1cnc(CSc2cnc(NC(=O)C3CCNCC3)s2)o1 [SNS-032] (first compound 0.0004 µM, partner dose 0.01 µM) | 97.1% | 83.7% | 72.2% | 106% | 87.2% | 92.2% |
